Data as given in the antibiotic and cytotoxicity screens of Wong et al. (2023).
This is one part of the list.

How the values were obtained:
HSkMC = human skeletal muscle cells; assay: cytotoxicity call (relative viability < 0.9); conditions: 10 µM
HepG2 = assay: cytotoxicity call (relative viability < 0.9); conditions: 10 µM
S. aureus RN4220 = assay: growth inhibition call (relative growth <= 0.2); conditions: 50 µM

Row | SMILES | cytotoxicity call (HSkMC) | cytotoxicity call (HepG2) | growth inhibition call (S. aureus RN4220)
1 | Cc1noc(C)c1NC(=O)N(C)C[C@@H]1Oc2ccc(NS(=O)(=O)c3ccccc3)cc2CC(=O)N([C@@H](C)CO)C[C@H]1C | inactive | inactive | inactive
2 | Cc1ccc(S(=O)(=O)N(C)C[C@@H]2Oc3ccc(NS(=O)(=O)c4ccccc4)cc3C(=O)N([C@@H](C)CO)C[C@@H]2C)cc1 | inactive | inactive | inactive
3 | C[C@H](CO)N1C[C@H](C)[C@@H](CN(C)Cc2ccc3c(c2)OCO3)Oc2c(NS(=O)(=O)c3cn(C)cn3)cccc2C1=O | inactive | inactive | inactive
4 | Cn1cc(Cl)c(C(=O)O)n1 | inactive | inactive | inactive
5 | COc1ccc(CN(C)C[C@H]2Oc3c(NC(=O)C4CCOCC4)cccc3C(=O)N([C@@H](C)CO)C[C@@H]2C)cc1 | inactive | inactive | inactive
6 | C[C@H]1CCCCO[C@@H](CN(C)C(=O)Nc2ccc(C(F)(F)F)cc2)[C@@H](C)CN([C@@H](C)CO)C(=O)c2cc(NC(=O)Nc3cccc4ccccc34)ccc2O1 | inactive | inactive | inactive
7 | Cc1ccc(S(=O)(=O)N(C)C[C@H]2OCCCC[C@H](C)Oc3ccc(NC(=O)Nc4ccccc4)cc3C(=O)N([C@@H](C)CO)C[C@@H]2C)cc1 | inactive | inactive | inactive
8 | CCCCCCCC/C=C\CCCCCCCC(=O)O | inactive | inactive | inactive
9 | C[C@@H]1CN([C@@H](C)CO)C(=O)Cc2cc(NC(=O)CCCN(C)C)ccc2O[C@@H]1CN(C)S(=O)(=O)c1ccccc1 | inactive | inactive | inactive
10 | C[C@H]1CN([C@@H](C)CO)C(=O)c2cc(NC(=O)C3CC3)ccc2O[C@@H]1CN(C)Cc1ccc(-c2ccccc2)cc1 | inactive | inactive | inactive
11 | C[C@H](NC(=O)C[C@H]1C=C[C@H](NC(=O)CN2CCOCC2)[C@@H](CO)O1)c1ccccc1 | inactive | inactive | inactive
12 | C/C=C1\[C@H](O[C@@H]2O[C@H](CO)[C@@H](O)[C@H](O)[C@H]2O)OC=C(C(=O)OC)[C@H]1CC(=O)OC[C@H]1O[C@@H](OCCc2ccc(O)cc2)[C@H](O)[C@@H](O)[C@@H]1OC(=O)C[C@@H]1C(C(=O)OC)=CO[C@@H](O[C@@H]2O[C@H](CO)[C@@H](O)[C@H](O)[C@H]2O)/C1=C\C | inactive | inactive | inactive
13 | C[C@@H]1CCCCO[C@@H](CN(C)C(=O)Cc2ccccc2)[C@H](C)CN([C@H](C)CO)C(=O)c2cc(NC(=O)Nc3ccccc3)ccc2O1 | inactive | inactive | inactive
14 | C[C@H](CO)N1C[C@H](C)[C@@H](CN(C)C(=O)NC2CCCCC2)OCCCC[C@H](C)Oc2ccc(NC(=O)Nc3cccc4ccccc34)cc2C1=O | inactive | inactive | inactive
15 | COc1cccc(S(=O)(=O)N2C[C@H](O)COC[C@H]3O[C@@H](CC(=O)N4CCN(c5ccccc5)CC4)CC[C@@H]32)c1 | inactive | inactive | inactive
16 | C[C@H]1CN([C@@H](C)CO)C(=O)c2cc(NS(=O)(=O)c3cn(C)cn3)ccc2O[C@@H]1CN(C)C(=O)Nc1ccc2c(c1)OCO2 | inactive | inactive | inactive
17 | C[C@@H]1CN([C@@H](C)CO)S(=O)(=O)c2ccc(C#C[C@@H](C)O)cc2O[C@@H]1CN(C)C(=O)CN(C)C | inactive | inactive | inactive
18 | CC(C)NC(=O)Nc1cccc2c1O[C@H](CN(C)Cc1ccc(Oc3ccccc3)cc1)[C@H](C)CN([C@@H](C)CO)C2=O | inactive | inactive | inactive
19 | C[C@H](CO)N1C[C@H](C)[C@@H](CN(C)S(=O)(=O)c2cn(C)cn2)Oc2c(NC(=O)c3ccncc3)cccc2C1=O | inactive | inactive | inactive
20 | Cc1noc(C)c1S(=O)(=O)N(C)C[C@@H]1OCCCC[C@@H](C)Oc2ccc(N(C)C)cc2C(=O)N([C@@H](C)CO)C[C@H]1C | inactive | inactive | inactive
21 | O=C1C=C(O)C(=O)c2ccccc21 | inactive | inactive | inactive
22 | Cc1ccc(S(=O)(=O)Nc2ccc3c(c2)C(=O)N([C@H](C)CO)C[C@H](C)[C@H](CN(C)Cc2ccc(Cl)c(Cl)c2)O3)cc1 | active | active | inactive
23 | CC(C)(C)NC(=O)C[n+]1cccc(/C=N/O)c1 | inactive | inactive | inactive
24 | Oc1ccc(Oc2ccccc2)cc1 | inactive | inactive | inactive
25 | C[C@@H]1CN([C@@H](C)CO)C(=O)Cc2cc(NS(=O)(=O)c3ccccc3)ccc2O[C@H]1CN(C)S(=O)(=O)c1ccccc1 | inactive | inactive | inactive
26 | COC(=O)[C@H](Cc1ccc(-n2cc(-c3ccc(C(=O)NO)cc3)nn2)cc1)N1CC2=C[C@H]([C@@H](O)Cc3ccccc3)n3c(=O)n(C)c(=O)n3[C@@H]2[C@@H](C2CC2)O1 | inactive | inactive | inactive
27 | COCCOC(=O)N1C(=O)[C@@]2(c3cc(C#CC4=CCCCC4)ccc31)[C@H](C(=O)N1CCN(c3ncccn3)CC1)[C@H]1C(=O)O[C@H](c3ccccc3)[C@H](c3ccccc3)N1[C@@H]2c1ccc(O)cc1 | inactive | inactive | inactive

Row | SMILES | cytotoxicity call (HSkMC) | cytotoxicity call (HepG2) | growth inhibition call (S. aureus RN4220)
28 | Cc1noc(C)c1S(=O)(=O)Nc1ccc2c(c1)CC(=O)N([C@H](C)CO)C[C@@H](C)[C@H](CN(C)S(=O)(=O)c1ccccc1)O2 | inactive | inactive | inactive
29 | C[C@H]1CN([C@@H](C)CO)C(=O)Cc2cc(NC(=O)C3CC3)ccc2O[C@H]1CN(C)S(=O)(=O)c1cn(C)cn1 | inactive | inactive | inactive
30 | Cc1ccc(S(=O)(=O)N(C)C[C@@H]2Oc3ccc(NC(=O)Nc4ccc(C(F)(F)F)cc4)cc3C(=O)N([C@H](C)CO)C[C@@H]2C)cc1 | inactive | active | inactive
31 | CC(C)CC#Cc1ccc2c(c1)O[C@H](CN(C)C(=O)c1cccnc1)[C@H](C)CN([C@@H](C)CO)S2(=O)=O | inactive | inactive | inactive
32 | N=C(N=C(N)N)Nc1cc(-c2cccs2)n[nH]1 | inactive | inactive | inactive
33 | O=C(C[C@H]1CC[C@H](NC(=O)Cc2ccccn2)[C@@H](CO)O1)NCCc1ccncc1 | inactive | inactive | inactive
34 | COCC(=O)N1C[C@@H](C)[C@H](OC)CN(C)C(=O)c2ccc(NC(=O)Nc3ccccc3)cc2OC[C@@H]1C | inactive | inactive | inactive
35 | CCOCC(=O)NS(=O)(=O)c1ccccc1 | inactive | inactive | inactive
36 | O=c1c(O)c(-c2ccc(O)cc2O)oc2cc(O)cc(O)c12 | inactive | inactive | inactive
37 | CC(C)CC#Cc1cnc2c(c1)C(=O)N([C@H](C)CO)C[C@H](C)[C@@H](CN(C)C(=O)c1ccc3c(c1)OCO3)O2 | inactive | inactive | inactive
38 | Cc1noc(C)c1S(=O)(=O)Nc1ccc2c(c1)CC(=O)N([C@@H](C)CO)C[C@H](C)[C@H](CN(C)C(=O)Nc1ccccc1)O2 | inactive | inactive | inactive
39 | C[C@@H]1CN([C@H](C)CO)C(=O)c2cc(NC(=O)c3ccncc3)ccc2O[C@H]1CN(C)Cc1ccc(-c2ccccc2)cc1 | inactive | active | inactive
40 | C[C@@H]1CN([C@H](C)CO)C(=O)c2cc(NC(=O)c3ccncc3)ccc2O[C@@H](C)CCCCO[C@H]1CN(C)C(=O)Nc1ccccc1 | inactive | inactive | inactive
41 | Cc1noc(C)c1NC(=O)Nc1ccc2c(c1)C(=O)N([C@H](C)CO)C[C@H](C)[C@H](CN(C)CC1CC1)OCCCC[C@H](C)O2 | inactive | inactive | inactive
42 | OCC1(O)OCC(O)C(O)C1O (configuration not stated) | inactive | inactive | inactive
43 | COc1ccc(NC(=O)Nc2ccc3c(c2)C(=O)N([C@@H](C)CO)C[C@@H](C)[C@H](CN(C)C(=O)NC(C)C)OCCCC[C@H](C)O3)cc1 | inactive | inactive | inactive
44 | CCCNC(=O)Nc1ccc2c(c1)C(=O)N(C)C[C@@H](OC)[C@H](C)CN(C(=O)C1CCOCC1)[C@@H](C)CO2 | inactive | inactive | inactive
45 | O=C(C[C@H]1CC[C@H]2[C@@H](COC[C@@H](O)CN2C(=O)c2ccccc2)O1)N1CCOCC1 | inactive | inactive | inactive
46 | C[C@@H]1CN([C@@H](C)CO)C(=O)c2cc(NC(=O)Nc3ccc(C(F)(F)F)cc3)ccc2O[C@@H]1CN(C)C(=O)Nc1cccc2ccccc12 | inactive | inactive | inactive
47 | C[C@H](CO)N1C[C@H](C)[C@H](CN(C)Cc2ccc(C(=O)Nc3ccccc3N)cc2)Oc2ccc(NC(=O)CCC(F)(F)F)cc2C1=O | inactive | inactive | inactive
48 | COc1cccc(NC(=O)N2C[C@@H](O)COC[C@@H]3O[C@@H](CC(=O)NCCCN4CCOCC4)CC[C@H]32)c1 | inactive | inactive | inactive
49 | COc1cccc(C(=O)Nc2ccc3c(c2)C(=O)N(C)[C@@H]2CC[C@@H](CC(=O)NCCCN4CCOCC4)O[C@@H]2CO3)c1 | inactive | inactive | inactive
50 | Cc1ccc(S(=O)(=O)N2C[C@H](O)COC[C@@H]3O[C@@H](CC(=O)NCc4ccc(Cl)c(Cl)c4)CC[C@H]32)cc1 | inactive | inactive | inactive
51 | Cc1noc(C)c1S(=O)(=O)N(C)C[C@@H]1Oc2ccc(NS(=O)(=O)c3ccccc3)cc2C(=O)N([C@H](C)CO)C[C@@H]1C | inactive | inactive | inactive
52 | COc1ccc(S(=O)(=O)N(C)C[C@H]2Oc3ccc(N(C)C)cc3CC(=O)N([C@H](C)CO)C[C@@H]2C)cc1 | inactive | inactive | inactive
53 | O=C(CCNc1n[nH]c(=O)[nH]c1=O)N1CCOCC1 | inactive | active | inactive
54 | C[C@H](CO)N1C[C@H](C)[C@@H](CN(C)Cc2ccc(C(=O)O)cc2)Oc2ccc(NC(=O)CCN3CCOCC3)cc2C1=O | inactive | inactive | inactive
